{"source": "PubChem BioAssay AID485281", "about": "(National Center for Advancing Translational Sciences (NCATS), 2010)", "note": "About 260 (0.074%) of roughly 350,000 compounds were called active. This list was built around the results that the source calls inconclusive (neither active nor inactive); the mix of calls is not that of the screen. The call rests on the fitted dose curve; in most records, active means well fitted inhibition curve with a large enough effect; inconclusive means small, poorly fitted or top-dose-only effect; inactive means no such curve, though single readings can be large or run the other way. Potencies of inconclusive entries are doubtful fits and often do not repeat. On the % scale 0 is the no-effect control and ±100 the full control effect; potency means the concentration at half of the fitted maximal effect; tags describe the fitted curve by direction and shape.", "data": [{"molecular_target": "Ferritin light chain (Equus caballus) (UniProt P02791)", "sequence (P02791 whole entry, looked up)": "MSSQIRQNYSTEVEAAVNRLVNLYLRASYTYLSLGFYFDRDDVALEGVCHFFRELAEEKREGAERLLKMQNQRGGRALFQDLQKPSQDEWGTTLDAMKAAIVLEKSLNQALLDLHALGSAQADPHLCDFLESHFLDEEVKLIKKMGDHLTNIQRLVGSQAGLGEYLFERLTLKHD", "test": "qHTS Assay for Identification of Novel General Anesthetics; further: nearly all actives have a fitted effect of over 20% in size", "settings": "apoferritin/1-aminoanthracene competitive binding, fluorescence; activity change, negative = displacement: at 77.5 µM (top of the series)", "method_in_brief": "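Horse-spleen apoferritin (10 uM) was mixed with 50% saturated 1-aminoanthracene in PBS, exposed to compounds for 10 min at room temperature, and read for fluorescence (ex 380 nm, em 535 nm). Competitive displacement was fitted with a four-parameter Hill equation.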", "values": [{"compound": "COc1ccc(Nc2cc(C(=O)NCCCN(C)Cc3ccccc3)c3ccccc3n2)cc1OC", "Potency": "inconclusive: 50.1 µM [inhibitor, single point]"}, {"compound": "O=S(=O)(NCCCc1ccccc1)c1ccc(F)c(F)c1", "Potency": "inconclusive: 20 µM [inhibitor, partial curve]"}, {"compound": "COc1cc(/C=N/NC(=O)c2cc3c(ccc4ccccc43)o2)cc(OC)c1O", "Potency": "inconclusive: 56.2 µM [inhibitor, single point]"}, {"compound": "O/N=C/c1ccccc1Oc1ccc(Cl)cc1", "Potency": "inconclusive: 15.8 µM [inhibitor, partial curve]"}, {"compound": "CC1CCCC/C1=N\\NC(=S)NCCc1ccccc1", "note": "(centres undefined)", "Potency": "inconclusive: 25.1 µM [inhibitor, partial curve]"}, {"compound": "CC(C)(CCl)C(=O)Nc1ccc(Sc2ccc(F)cc2)cc1", "Potency": "inconclusive: 3.55 µM [inhibitor, partial curve]"}, {"compound": "CNc1nc(N)c(C(=O)C23CC4CC(CC(C4)C2)C3)s1", "Potency": "inconclusive: 12.6 µM [inhibitor, partial curve]"}, {"compound": "O=C(NC(=S)NCCc1ccccc1)c1ccccc1F", "Potency": "inconclusive: 25.1 µM [inhibitor, single point]"}, {"compound": "NC(=S)N/N=C1/CCSc2ccc3ccccc3c21", "Potency": "inconclusive: 31.6 µM [inhibitor, partial curve]"}, {"compound": "Cn1c(-c2ccc(F)cc2)cnc1SCC(=O)NCc1ccco1", "Potency": "inconclusive: 44.7 µM [inhibitor, single point]"}, {"compound": "Cn1c(=O)[nH]c(=O)c2[nH]c(CN3CCN(Cc4ccccc4)CC3)nc21", "activity change, negative = displacement": "inactive: -11.1%"}, {"compound": "CC1=CC(c2ccc(Cl)cc2)n2nc(N3C(=O)CCC3=O)nc2N1", "note": "(centres undefined)", "activity change, negative = displacement": "inactive: 64.7%"}, {"compound": "CCOc1cc(C=O)ccc1OCCSc1ccc(Cl)cc1", "Potency": "inconclusive: 31.6 µM [inhibitor, partial curve]"}, {"compound": "O=C1CN(C(=O)c2cc(Br)c(Br)s2)c2ccccc2N1", "Potency": "inconclusive: 31.6 µM [inhibitor, partial curve]"}, {"compound": "OC(c1cccs1)c1nccc2ccccc12", "note": "(centres undefined)", "Potency": "inconclusive: 28.2 µM [inhibitor, partial curve]"}, {"compound": "O=[N+]([O-])c1cccc(/C([O-])=C(/C(=S)Nc2cccc3ccccc23)[n+]2ccccc2)c1", "Potency": "inconclusive: 28.2 µM [inhibitor, partial curve]"}, {"compound": "Cc1oc(-c2ccc(Cl)cc2)nc1CN1CCC(C(=O)NCc2ccco2)CC1", "activity change, negative = displacement": "inactive: -14.8%"}, {"compound": "COc1cccc(NC(=O)[C@H](Cc2ccccc2)NC(=O)[C@@H]2Cc3ccccc3CN2)c1", "activity change, negative = displacement": "inactive: -21.4%"}, {"compound": "CCN1c2ccccc2-n2cccc2C12CCN(C(=O)Nc1ccccc1C(F)(F)F)CC2", "activity change, negative = displacement": "inactive: -3.2%"}, {"compound": "CN(CC(=O)Nc1ccccc1Br)C(=O)c1ccc(-c2ccc(Cl)cc2)o1", "Potency": "inconclusive: 15.8 µM [inhibitor, partial curve]"}, {"compound": "Cc1cccc(C)c1NC(=O)Cn1nnc(-c2ccc(N3CCOCC3)cc2)n1", "activity change, negative = displacement": "inactive: -0.72%"}, {"compound": "CS(=O)(=O)NCCSCc1ccccc1", "Potency": "inconclusive: 35.5 µM [inhibitor, partial curve]"}, {"compound": "COc1ccc(S(=O)(=O)NCC(c2cccnc2)N2CCN(Cc3ccccc3)CC2)cc1C", "note": "(centres undefined)", "activity change, negative = displacement": "inactive: -11.4%"}, {"compound": "Cc1ccc(OCC(O)CNC2CCCC2)cc1C", "note": "(centres undefined)", "Potency": "inconclusive: 35.5 µM [inhibitor, single point]"}, {"compound": "CCOc1cc(CNc2ccc(N(C)C)cc2)cc(Br)c1OCC(=O)NC(C)(C)C", "Potency": "inconclusive: 35.5 µM [inhibitor, single point]"}, {"compound": "Cc1ccc(Cl)c2sc(N3CCN(C(=O)C4CC4)CC3)nc12", "Potency": "inconclusive: 44.7 µM [inhibitor, single point]"}, {"compound": "CCCCc1ccc(NC(=O)CC(C)C)cc1", "Potency": "inconclusive: 20 µM [inhibitor, partial curve]"}, {"compound": "Cc1ccccc1Oc1cc(NC(=O)Cn2cnc([N+](=O)[O-])c2)cc([N+](=O)[O-])c1", "Potency": "inconclusive: 39.8 µM [inhibitor, single point]"}, {"compound": "O=c1c2ccccc2nnn1Cc1cccc2ccccc12", "Potency": "inconclusive: 14.1 µM [inhibitor, partial curve]"}, {"compound": "Cc1cccc(N(CC(=O)N/N=C/c2cc([N+](=O)[O-])ccc2Cl)S(C)(=O)=O)c1C", "Potency": "inconclusive: 3.55 µM [inhibitor, partial curve]"}, {"compound": "CC1=C/C(=C\\c2ccc3c(c2)OCO3)C(=O)S1", "Potency": "inconclusive: 11.2 µM [inhibitor, partial curve]"}, {"compound": "CCn1nc(C)c(NC(=O)c2cnn3c(C(F)F)cc(-c4ccccc4)nc23)c1C", "Potency": "inconclusive: 35.5 µM [inhibitor, single point]"}, {"compound": "Cc1ccccc1Cn1cc(S(=O)(=O)c2ccc(Cl)cc2)c(=O)c2cc3c(cc21)OCO3", "activity change, negative = displacement": "inactive: -6.01%"}, {"compound": "CCc1cc(=O)oc2cc(C)cc(OCC(=O)NC(Cc3c[nH]c4ccc(O)cc34)C(=O)O)c12", "note": "(centres undefined)", "activity change, negative = displacement": "inactive: -8.08%"}, {"compound": "C=CCN1C(=O)C2(NNc3ccccc3O2)c2ccccc21", "note": "(centres undefined)", "Potency": "inconclusive: 44.7 µM [inhibitor, partial curve]"}, {"compound": "C=CCn1c(SCC(=O)Nc2ccc(N(C)C)cc2)nnc1-c1cccc(C)c1", "Potency": "inconclusive: 31.6 µM [inhibitor, partial curve]"}, {"compound": "CCc1ccc(-n2nc3cc(C)c(NC(=O)c4cc(Cl)ccc4OC)cc3n2)cc1", "activity change, negative = displacement": "inactive: -7.56%"}, {"compound": "CC(C)CCNC(=O)C12CN(Cc3ccccc3)CC1C(c1ccc([N+](=O)[O-])cc1)=NO2", "note": "(centres undefined)", "activity change, negative = displacement": "inactive: -14.3%"}, {"compound": "O=C1CC(SCc2nc3ccccc3[nH]2)C(=O)N1c1ccc(F)c(Cl)c1", "note": "(centres undefined)", "activity change, negative = displacement": "inactive: -12.4%"}, {"compound": "Nc1ncnc2c1ncn2[C@@H]1O[C@H](C(=O)N2CCN(CC(=O)Nc3cccc4c3CNC4=O)CC2)[C@@H](O)[C@H]1O", "activity change, negative = displacement": "inactive: 1.42%"}, {"compound": "COc1ccccc1NC(=O)CSc1nnc(C2CCCCC2)o1", "Potency": "inconclusive: 44.7 µM [inhibitor, partial curve, poor fit]"}, {"compound": "CCCN(C(=O)Cn1ncc2c(=O)oc3ccccc3c21)c1cccc(C)c1", "Potency": "inconclusive: 28.2 µM [inhibitor, partial curve]"}, {"compound": "CCS(=O)(=O)N1Cc2ccccc2CC1C(=O)Nc1cc(S(C)(=O)=O)ccc1Cl", "note": "(centres undefined)", "Potency": "inconclusive: 35.5 µM [inhibitor, single point]"}, {"compound": "COc1ccc(C(=O)Nc2ccc3ccccc3c2)cc1OC", "activity change, negative = displacement": "inactive: 14.8%"}, {"compound": "CCCCOC(=O)c1ccc(NS(=O)(=O)c2c(C)nc3scc(C)n3c2=O)cc1", "Potency": "inconclusive: 12.6 µM [inhibitor, partial curve]"}, {"compound": "COc1cc(C=O)ccc1OCCOCCOc1ccccc1Cl", "Potency": "inconclusive: 22.4 µM [inhibitor, partial curve]"}, {"compound": "O=C(Cc1cccs1)NCc1ccccc1Br", "activity change, negative = displacement": "inactive: -0.874%"}, {"compound": "C=CCN(CC=C)C(=S)Nc1ccc(OC)c(OC)c1", "Potency": "inconclusive: 31.6 µM [inhibitor, partial curve]"}, {"compound": "CCC1CCCCN1S(=O)(=O)c1ccccc1", "note": "(centres undefined)", "Potency": "inconclusive: 14.1 µM [inhibitor, partial curve]"}, {"compound": "CC(C)(C)c1ccc(O)c(N=Cc2cc(Br)ccc2O)c1", "Potency": "inconclusive: 35.5 µM [inhibitor, partial curve]"}, {"compound": "COc1ccc(NC(=O)c2ccc3nc(CCc4ccccc4)oc3c2)cc1", "Potency": "inconclusive: 12.6 µM [inhibitor, partial curve]"}, {"compound": "S=c1[nH]c2cc(Cl)ccc2s1", "activity change, negative = displacement": "inactive: -13.7%"}, {"compound": "COc1ccc(C2CC(c3ccccc3)=NN2C(=O)COC(=O)c2cccnc2)cc1", "note": "(centres undefined)", "Potency": "inconclusive: 25.1 µM [inhibitor, partial curve]"}, {"compound": "O=C(CSC1=NCCS1)Nc1ccc2ccccc2c1", "activity change, negative = displacement": "inactive: -11.9%"}, {"compound": "COc1ccc(OC)c(CNc2ccc(F)c(Cl)c2)c1", "Potency": "inconclusive: 15.8 µM [inhibitor, partial curve]"}, {"compound": "CC(=O)c1ccc(NC(=O)c2ccc(CSc3ccccc3)o2)cc1", "activity change, negative = displacement": "inactive: -19.2%"}, {"compound": "CCOc1ccccc1NC(=O)CSc1nc2ccccc2c2nc(CCn3cncc3C)nn12", "Potency": "inconclusive: 35.5 µM [inhibitor, single point]"}, {"compound": "Cc1cccc(/C=C/c2ccccc2)n1", "Potency": "inconclusive: 25.1 µM [inhibitor, partial curve]"}, {"compound": "Cc1cccc(OCc2nnc(SCc3cc(=O)n4cc(Br)ccc4n3)o2)c1", "Potency": "inconclusive: 15.8 µM [inhibitor, partial curve]"}, {"compound": "COc1cccc(OC)c1-c1nn2c(-c3cc(-c4ccccc4)n[nH]3)nnc2s1", "Potency": "inconclusive: 39.8 µM [inhibitor, partial curve]"}, {"compound": "COc1ccnc2c1c(=O)n(Cc1cccc(Cl)c1)c(=O)n2C", "Potency": "inconclusive: 25.1 µM [inhibitor, partial curve]"}, {"compound": "CC(=O)N(CCC(Cc1ccccc1)c1ccc2c(c1)OCO2)Cc1ccc(Cl)cc1", "note": "(centres undefined)", "activity change, negative = displacement": "inactive: 71.8%"}, {"compound": "Brc1ccc(CSc2ncn[nH]2)cc1", "Potency": "inconclusive: 28.2 µM [inhibitor, partial curve]"}, {"compound": "Cc1ccc(CC(=O)Nc2nc3c(s2)CCCC3)cc1", "Potency": "inconclusive: 35.5 µM [inhibitor, partial curve]"}, {"compound": "Cc1ccc(NC(=O)CN2C(=O)S/C(=C\\c3cc(C)n(-c4ccc(C(=O)O)cc4)c3C)C2=O)cc1", "Potency": "inconclusive: 39.8 µM [inhibitor, single point]"}, {"compound": "CCCCCOCC1CC(C/C(C)=N/Nc2nc(-c3ccccc3)cs2)C(=O)O1", "note": "(centres undefined)", "Potency": "inconclusive: 39.8 µM [inhibitor, single point]"}, {"compound": "COc1ccc(N2CCN(C(=O)C(CCSC)N=C3NS(=O)(=O)c4ccccc43)CC2)cc1", "note": "(centres undefined)", "Potency": "inconclusive: 17.8 µM [inhibitor, partial curve]"}, {"compound": "C/C(=N/NC(=O)c1cc(-c2ccc(Br)s2)[nH]n1)c1ccco1", "Potency": "inconclusive: 20 µM [inhibitor, partial curve]"}, {"compound": "Cc1ccc(CNc2cnccn2)cc1", "Potency": "inconclusive: 22.4 µM [inhibitor, partial curve]"}]}]}
